Values quoted from earlier work in patent publication US20240156960A1 (priority 2020, published 2024).

Experiments:
[1] = tested on: SARS-CoV1
[2] = tested on: SARS-CoV2; details: source Davide Robbiani et al., 2020

B1: C131 (antibody, listed as Homo sapiens, V domains shown)
VH: QVQLVQSGSEVKKPGSSVKVSCKASGGTFSSYAFSWVRQAPGQGLEWMGRIIPILALANYAQKFQGRVTITADKSTSTAYMELSSLRSEDTAVYYCARVNQAVTTPFSMDVWGQGTTVTVSS
VL: EIVMTQSPATLSVSPGERATLSCRASQSVSSNLAWYQQKPGQAPRLLIYGASTRATGIPARFSGSGSGTEFTLTISSLQSEDFAVYYCQQYNNWPITFGQGTRLEIK
In the case of B1, the “Not Neutralising Vs” value [1] is listed as “SARS-CoV1” and the “Binds to” value [2] is listed as “SARS-CoV2”.
